# Test results from PubChem BioAssay AID686978 (National Center for Advancing Translational Sciences (NCATS), 2013).
# “And” between values parts separate entries of the source, which are not always exact repeats. Equal values may be shown once. Among all 420,000 compounds or so, about 64,000 (15%) were called active. The shares of active, inactive and inconclusive entries below differ from those in the screen. The call rests on the fitted dose curve; in most records, active means well fitted inhibition curve with a large enough effect; inconclusive means small, poorly fitted or top-dose-only effect; inactive means flat fitted curve, though single readings scatter. Where the call is inconclusive, the potency comes from a doubtful curve fit.
# Experiment: qHTS for Inhibitors of human tyrosyl-DNA phosphodiesterase 1 (TDP1): qHTS in cells in absence of CPT; further: nearly all actives have a fitted effect of over 55% in size
# Details: DT40 Tdp1-/- hTDP1 cells, no CPT, ATP luminescence, 48 h; activity change, negative = growth inhibition: at 46.2 µM (top of the series)
# Method in brief: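 DT40 Tdp1-/-;hTDP1 cells, no CPT (DMSO vehicle only), 400 cells/well; compounds pin-transferred; ≥48 hr, 37 °C; CellTiter-Glo 30 min RT dark, luminescence read.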
# On the % scale 0 is the no-effect control and ±100 the full control effect; potency means the concentration at half of the fitted maximal effect; tags describe the fitted curve by direction and shape.
SMILES,Potency,"activity change, negative = growth inhibition"
CC(c1ccccc1)N1CC(C(=O)Nc2nccs2)CC1=O (stereo unspecified),inactive,
O=C(c1ccc([N+](=O)[O-])cc1)N1CCN(c2cccc3[nH]ccc23)CC1,"inconclusive: 25.9 µM [inhibitor, single point]",
COc1ccc(CNC(=O)C(CCSC)NS(=O)(=O)c2ccc3c(c2)oc(=O)n3C)cc1 (stereo unspecified),inactive,
COc1ccc(CNC(=O)CN(c2ccc(C)cc2)S(=O)(=O)c2c(C)noc2C)cc1,"inconclusive: 16.4 µM [inhibitor, single point] and inconclusive: 23.1 µM [inhibitor, partial curve]",
C=C(C)CN(CC)C(=O)CSc1ccc(S(=O)(=O)N2CCN(Cc3ccccc3)CC2)cn1,"inconclusive: 14.6 µM [inhibitor, partial curve, poor fit]",
O=C(Nc1cc(F)c(Br)cc1F)c1ccc(Cl)cc1,"inconclusive: 16.4 µM [inhibitor, single point]",
C#CCN(C[C@@H]1[C@@H](OC(=O)NCc2ccccc2)[C@@H](OC(=O)NCc2ccccc2)CN(C(=O)OC(C)C)N1C(=O)OC(C)C)S(=O)(=O)c1ccc(C)cc1,active: 11.6 µM,
COC(=O)[C@H]1C[C@H](OC(=O)NCC2CCCCC2)[C@@]2(O)CN(S(=O)(=O)c3ccc(C)cc3)CC2[C@H]1C(=O)OC (stereo partly specified),"inconclusive: 16.4 µM [inhibitor, single point]",
CCOc1ccc(-c2cc(C(=O)Nc3cccc(C(F)(F)F)c3)[nH]n2)c(C)c1,"inconclusive: 8.2 µM [inhibitor, partial curve]",
CCOC(=O)Cc1csc(NC(=O)c2ccc(C)o2)n1,inactive,
O=C1N2CCCCC1(Sc1ccccc1)CCC2 (stereo unspecified),inactive,
Cc1cccc(CNC(=O)c2ccc3nc(Cc4ccccc4F)oc3c2)n1,"inconclusive: 29.1 µM [inhibitor, single point]",
CCOC(=O)c1c(CC(C)C)csc1/N=C/C1=C(O)CCCC1=O,"inconclusive: 13 µM [inhibitor, partial curve]",
COc1ccccc1N1CCN(C(=O)C2CCN(C(=O)c3ccc(C(C)(C)C)cc3)CC2)CC1,"inconclusive: 29.1 µM [inhibitor, single point]",
O=C(Nc1cccc(S(=O)(=O)N2CCOCC2)c1)C1CCCC1,inactive,
FC(F)(F)c1cccc(-c2cc3ccccc3nc2N2CCCC2)c1,"inconclusive: 29.1 µM [inhibitor, single point]",
Cc1cc(C)cc(NC(=O)CSc2nc3c([nH]c4ccccc43)c(=O)n2-c2ccc(F)cc2)c1,active: 20.6 µM,
Cn1c(=O)c(=O)n(C)c2cc(N3CCCCC3)c(NS(=O)(=O)c3ccc(Br)cc3)cc21,"inconclusive: 29.1 µM [inhibitor, single point]",
C/C=C/Cn1c(N2CCCCCC2)nc2c1c(=O)[nH]c(=O)n2C,"inconclusive: 23.1 µM [inhibitor, single point]",
Cc1cc(C)c(S(=O)(=O)N2CCCCCC2)cc1Br,"inconclusive: 29.1 µM [inhibitor, single point]",
O=[N+]([O-])c1ccccc1C=NN1CCCCCC1,"inconclusive: 18.4 µM [inhibitor, partial curve]",
COc1ccccc1CNc1cncnc1,inactive,
COc1cc(O)c(CC=C(C)C)c(O)c1C(=O)CCc1ccc(O)cc1,active: 20.6 µM,
CSc1nccc(-c2c(-c3ccc(Cl)cc3)noc2C)n1,"inconclusive: 13 µM [inhibitor, partial curve]",

SMILES,Potency,"activity change, negative = growth inhibition"
Cc1c(-c2ccccc2)[nH]n2c(=O)c3c(nc12)CCCC3,inactive,
CN1CCN(c2nc(-c3ccccc3)nc3c2oc2ccccc23)CC1,"inconclusive: 29.1 µM [inhibitor, single point]",
CCCOc1ccc(N2C(=O)C/C(=C\c3ccccc3)C2=O)cc1,"inconclusive: 7.31 µM [inhibitor, partial curve]",
COc1ccccc1OCC(=O)N(Cc1nc(-c2ccccc2)no1)C1CCCCC1,active: 20.6 µM,
Nc1ccc(C(=O)N/N=C/c2c[nH]c3ccccc23)cc1,inactive,
COc1ccc(C(Nc2ccccn2)c2c(NC(=O)c3ccco3)sc(C)c2C)cc1OC (stereo unspecified),"inconclusive: 18.4 µM [inhibitor, single point]",
COc1ccccc1NC(=S)NNC(=O)c1nn(C)cc1Cl,inactive,
CCC1(C)Cc2ccccc2-c2c1c(=O)n(-c1ccc(C)cc1)c1nnnn21 (stereo unspecified),"inconclusive: 29.1 µM [inhibitor, partial curve, poor fit]",
COc1cc(/C=C/C(=O)N2CCCc3ccccc32)cc(OC)c1OC,"inconclusive: 29.1 µM [inhibitor, single point]",
CCCOc1ccc(C(=O)Nc2nonc2-c2ccc(OCC)cc2)cc1,inactive,
CCC(C)NC(=O)Cn1cccc1C(=O)c1ccccc1 (stereo unspecified),inactive,
CC(CCCC(C)(C)O)NCCO (stereo unspecified),"inconclusive: 0.146 µM [inhibitor, full curve]",
CCNC(=S)N(Cc1cccs1)Cc1cc2cc(OCC)ccc2[nH]c1=O,active: 16.4 µM,
Clc1cccc(CN2CCc3c([nH]c4ccccc34)C2)c1,"inconclusive: 20.6 µM [inhibitor, single point]",
COC(=O)C1=CN(c2cccc(Cl)c2)C=C(C(=O)OC)C1c1cccc(OC)c1,"inconclusive: 23.1 µM [inhibitor, single point]",
Cc1ccccc1CC1(CO)CCCN(C(=O)c2ccc3ncccc3c2)C1 (stereo unspecified),active: 14.6 µM,
CC1=C(C(=O)Nc2ccccc2)C(c2ccc(C)cc2)n2nc(SCc3ccccc3C)nc2N1 (stereo unspecified),inactive,
Cc1ccc(CN2CC(C(=O)N3CCN(c4ccccc4O)CC3)CC2=O)cc1 (stereo unspecified),"inconclusive: 29.1 µM [inhibitor, single point]",
CSc1ncccc1C(=O)NCC1Cc2cc(-c3cnccn3)cc(Cl)c2O1 (stereo unspecified),"inconclusive: 23.1 µM [inhibitor, single point]",
COc1ccc(C2C(C(C)=O)=C(O)C(=O)N2c2ccccn2)cc1 (stereo unspecified),inactive,
C=CCOc1ccccc1CNc1ccc2c(c1)OCCO2,active: 11.6 µM,
O=C(NCc1ccc(Cl)c(Cl)c1)c1cc(C2CCCCN2C(=O)c2cccs2)on1 (stereo unspecified),active: 20.6 µM,
CC(=O)c1cc(-c2ccccc2)n(CC(=O)N2CCC(C)CC2)c1C,active: 29.1 µM,
COC(=O)[C@@]12CCCCN1[C@H](c1ccc(-c3ccccc3)cc1)[C@@H]1C(=O)N(C)C(=O)[C@@H]12,"inconclusive: 20.6 µM [inhibitor, partial curve, poor fit]",

SMILES,Potency,"activity change, negative = growth inhibition"
N/C(COc1cc(Cl)cc(Cl)c1)=N\O,inactive,
CCOC(=O)N1CCC(N2C(=O)c3ccc(C(=O)Nc4ccc(OC)c(OC)c4)cc3C2=O)CC1,inactive,
COc1ccc(CNC(=O)C2=C(C)C(=O)OC23CCCCC3)cc1OC,"inconclusive: 6.51 µM [inhibitor, single point]",
O=C(CN1CCN(C(=O)c2ccccc2F)CC1)Nc1ccc(Br)cc1,"inconclusive: 29.1 µM [inhibitor, single point]",
COc1ccc(NS(=O)(=O)c2ccc3c(c2)oc(=O)n3C)c(OC)c1,,inconclusive: -31.4% [inhibitor]
CCOC(=O)c1cc(C)n(-c2c(C)n(C)n(-c3ccccc3)c2=O)c1C,inactive,
CCc1cccc(C)c1NC(=O)CO/N=C(\C)c1cc2ccccc2o1,active: 23.1 µM,
C=CC[C@@H](CC(=O)N[C@H](CO)Cc1ccccc1)C(=O)N[C@H](COC(=O)[C@@H](CC=C)Cc1ccc(F)cc1)Cc1ccccc1,active: 14.6 µM,
COc1ccc(S(=O)(=O)N2CCCC2CNC(=O)C(=O)NCCc2ccccc2)cc1 (stereo unspecified),active: 7.31 µM,
S=C(NN=C(c1ccccc1)c1ccccn1)N(Cc1ccccn1)Cc1ccccn1,active: 0.146 µM,
O=C(N/N=C\c1ccc(-c2ccccc2[N+](=O)[O-])o1)C1COc2cc3ccccc3cc2O1 (stereo unspecified),"inconclusive: 23.1 µM [inhibitor, single point]",
CC(C)n1nnnc1C1c2ccccc2C(=O)N1CCOc1ccccc1 (stereo unspecified),"inconclusive: 20.6 µM [inhibitor, single point]",
COC(=O)[C@]1(C)N[C@H](CN(C)C(=O)c2ccc(F)cc2)[C@@H]2C(=O)N(C)C(=O)[C@@H]21,inactive,
O=C(CCc1nnc(CCCc2ccccc2)o1)NCCc1ccccc1,"inconclusive: 29.1 µM [inhibitor, single point]",
O=C(Oc1ccccc1)N1CCC2(CCCN(c3cccc(-c4ccccc4)c3)C2)CC1,"inconclusive: 20.6 µM [inhibitor, single point]",
Cc1oc2cc3oc(=O)c(CC(=O)N4CCCCC4)c(C)c3cc2c1C,"inconclusive: 18.4 µM [inhibitor, single point]",
Brc1cc2c(cc1CSc1ncccn1)OCO2,"inconclusive: 32.6 µM [inhibitor, partial curve, poor fit]",
COc1ccccc1Oc1ccnc2cc(Cl)ccc12,"inconclusive: 29.1 µM [inhibitor, single point]",
Brc1ccccc1-n1nnc(-c2cnc3ccccc3c2)n1,active: 18.4 µM,
O=C(CCn1cnc2ccccc2c1=O)Nc1cccc(Cl)c1Cl,inactive,
COc1ccc(NC(=O)C23CC4CC(CC(Cl)(C4)C2)C3)cc1S(=O)(=O)N1CCOCC1,,inconclusive: -30% [inhibitor]
Oc1ccccc1C=NN=CC=Cc1ccccc1,"inconclusive: 20.6 µM [inhibitor, single point]",
CN(C1CCS(=O)(=O)C1)S(=O)(=O)c1ccc2ccccc2c1 (stereo unspecified),inactive,
